In the supplement of paper PMC9151546:
Repeats are few or missing, and single values can be far off.

Experiments:
CHO-K1 [1] = test: micronucleus frequency (% of nucleated events); higher = more micronuclei (genotoxic)
CHO-K1 [2] = test: hypodiploid nuclei frequency (% of nucleated events); higher = more hypodiploid events (aneugenic)
Experimental: (§1)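 Flow-cytometric in vitro micronucleus assay (Litron MicroFlow) in CHO-K1 cells in 96-well plates, 19 concentrations (4.5-200 µM, n=1 per concentration). Without S9, cells were exposed for 24 h and sampled at 48 h. With Aroclor 1254-induced rat liver S9, cells were exposed for 3-4 h and sampled at 27-28 h. Read-outs are %MN and %hypodiploid nuclei relative to nucleated events, and relative survival as the nuclei-to-bead ratio versus the 1% DMSO vehicle control (x100).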

CHO-K1 [3] = test: relative survival (nuclei to bead ratio vs DMSO control) (% of vehicle control); higher = more surviving cells
Experimental: as §1
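Wherever hypodiploid nuclei frequency (% of nucleated events) is given: hypodiploid nuclei gated on a flow cytometer with 488 nm excitation after SYTOX Green staining, cultures at 37 °C, positive controls vinblastine without S9 and cyclophosphamide with S9.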
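Wherever micronucleus frequency (% of nucleated events) is given: cells lysed with nuclei stained by SYTOX Green, then micronucleus-gated events counted against nucleated events by flow cytometry with 488 nm excitation.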
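Wherever relative survival (nuclei to bead ratio vs DMSO control) is given: Lysed-cell nuclei stained with SYTOX Green and counted against counting beads by flow cytometry at 488 nm excitation, with vinblastine (no S9) and cyclophosphamide (plus S9) as positive controls.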

Cc1ccc(N)c(N)c1 [3,4-Diaminotoluene]
Conditions	hypodiploid nuclei frequency, CHO-K1 [2] [%]	micronucleus frequency, CHO-K1 [1] [%]	relative survival, CHO-K1 [3]
concentration: 4.55 (µM), S9 metabolic activation: with S9, exposure time: 3-4 hours	0.4	1.84	119
concentration: 4.55 (µM), S9 metabolic activation: without S9, exposure time: 24 hours	0.78	2.6	109
concentration: 5.69 (µM), S9 metabolic activation: with S9, exposure time: 3-4 hours	0.12	1.54	89.5
concentration: 5.69 (µM), S9 metabolic activation: without S9, exposure time: 24 hours	0.94	1.8	124
concentration: 7.11 (µM), S9 metabolic activation: with S9, exposure time: 3-4 hours	0.18	1.24	81.6
concentration: 7.11 (µM), S9 metabolic activation: without S9, exposure time: 24 hours	1.28	2.62	114
concentration: 8.88 (µM), S9 metabolic activation: with S9, exposure time: 3-4 hours	0.28	1.18	97.7
concentration: 8.88 (µM), S9 metabolic activation: without S9, exposure time: 24 hours	0.8	2.58	123
concentration: 11.1 (µM), S9 metabolic activation: with S9, exposure time: 3-4 hours	0.26	1.36	96.2
concentration: 11.1 (µM), S9 metabolic activation: without S9, exposure time: 24 hours	1.1	1.94	108
concentration: 13.9 (µM), S9 metabolic activation: with S9, exposure time: 3-4 hours	0.2	0.98	93.4
concentration: 13.9 (µM), S9 metabolic activation: without S9, exposure time: 24 hours	0.86	2.44	139
concentration: 17.4 (µM), S9 metabolic activation: with S9, exposure time: 3-4 hours	0.22	1.4	93.1
concentration: 17.4 (µM), S9 metabolic activation: without S9, exposure time: 24 hours	0.76	1.76	92.1
concentration: 21.7 (µM), S9 metabolic activation: with S9, exposure time: 3-4 hours	0.3	1.88	108
concentration: 21.7 (µM), S9 metabolic activation: without S9, exposure time: 24 hours	1.02	1.88	107
concentration: 27.1 (µM), S9 metabolic activation: with S9, exposure time: 3-4 hours	0.08	1.62	82.9
concentration: 27.1 (µM), S9 metabolic activation: without S9, exposure time: 24 hours	0.68	2.08	89.5
concentration: 33.9 (µM), S9 metabolic activation: with S9, exposure time: 3-4 hours	0.12	0.86	57.2
concentration: 33.9 (µM), S9 metabolic activation: without S9, exposure time: 24 hours	0.92	1.78	71.8
concentration: 42.4 (µM), S9 metabolic activation: with S9, exposure time: 3-4 hours	0.26	1.38	73.9
concentration: 42.4 (µM), S9 metabolic activation: without S9, exposure time: 24 hours	1.1	1.98	78.1
concentration: 53 (µM), S9 metabolic activation: with S9, exposure time: 3-4 hours	0.16	1.18	65
concentration: 53 (µM), S9 metabolic activation: without S9, exposure time: 24 hours	1.02	2.56	78.1
concentration: 66.2 (µM), S9 metabolic activation: with S9, exposure time: 3-4 hours	0.26	1.16	59.4
concentration: 66.2 (µM), S9 metabolic activation: without S9, exposure time: 24 hours	1.48	2.26	65.3
concentration: 82.7 (µM), S9 metabolic activation: with S9, exposure time: 3-4 hours	0.26	1.24	77.9
concentration: 82.7 (µM), S9 metabolic activation: without S9, exposure time: 24 hours	2.78	3.2	79.6
concentration: 103 (µM), S9 metabolic activation: with S9, exposure time: 3-4 hours	0.14	1.56	73.7
concentration: 103 (µM), S9 metabolic activation: without S9, exposure time: 24 hours	9.94	3.16	43.4
concentration: 129 (µM), S9 metabolic activation: with S9, exposure time: 3-4 hours	0.12	1.06	54.1
concentration: 129 (µM), S9 metabolic activation: without S9, exposure time: 24 hours	3.66	3.8	50.9
concentration: 162 (µM), S9 metabolic activation: with S9, exposure time: 3-4 hours	0.28	1.62	56.7
concentration: 162 (µM), S9 metabolic activation: without S9, exposure time: 24 hours	–	–	33.5
concentration: 202 (µM), S9 metabolic activation: with S9, exposure time: 3-4 hours	0.16	1.58	84.5
concentration: 202 (µM), S9 metabolic activation: without S9, exposure time: 24 hours	2.02	3	44

CC(=O)OCCC(C)C [3-Methylbutyl acetate]
Conditions	hypodiploid nuclei frequency, CHO-K1 [2] [%]	micronucleus frequency, CHO-K1 [1] [%]	relative survival, CHO-K1 [3]
concentration: 4.5 (µM), S9 metabolic activation: with S9, exposure time: 3-4 hours	0.34	1.94	130
concentration: 4.5 (µM), S9 metabolic activation: without S9, exposure time: 24 hours	0.56	0.88	114
concentration: 5.63 (µM), S9 metabolic activation: with S9, exposure time: 3-4 hours	0.3	1.98	131
concentration: 5.63 (µM), S9 metabolic activation: without S9, exposure time: 24 hours	1.28	1.5	102
concentration: 7.04 (µM), S9 metabolic activation: with S9, exposure time: 3-4 hours	0.24	2.06	111
concentration: 7.04 (µM), S9 metabolic activation: without S9, exposure time: 24 hours	0.92	1.12	126
concentration: 8.8 (µM), S9 metabolic activation: with S9, exposure time: 3-4 hours	0.34	2.38	112
concentration: 8.8 (µM), S9 metabolic activation: without S9, exposure time: 24 hours	0.94	1.04	119
concentration: 11 (µM), S9 metabolic activation: with S9, exposure time: 3-4 hours	0.4	2.62	100
concentration: 11 (µM), S9 metabolic activation: without S9, exposure time: 24 hours	0.96	1.26	94.4
concentration: 13.7 (µM), S9 metabolic activation: with S9, exposure time: 3-4 hours	0.36	1.62	101
concentration: 13.7 (µM), S9 metabolic activation: without S9, exposure time: 24 hours	0.8	1.18	113
concentration: 17.2 (µM), S9 metabolic activation: with S9, exposure time: 3-4 hours	0.14	1.4	95.5
concentration: 17.2 (µM), S9 metabolic activation: without S9, exposure time: 24 hours	0.84	1.24	105
concentration: 21.5 (µM), S9 metabolic activation: with S9, exposure time: 3-4 hours	0.2	1.36	94.1
concentration: 21.5 (µM), S9 metabolic activation: without S9, exposure time: 24 hours	0.86	1.02	104
concentration: 26.8 (µM), S9 metabolic activation: with S9, exposure time: 3-4 hours	0.32	1.62	108
concentration: 26.8 (µM), S9 metabolic activation: without S9, exposure time: 24 hours	1.46	1.64	99.8
concentration: 33.6 (µM), S9 metabolic activation: with S9, exposure time: 3-4 hours	0.1	1.4	114
concentration: 33.6 (µM), S9 metabolic activation: without S9, exposure time: 24 hours	1.1	0.98	124
concentration: 41.9 (µM), S9 metabolic activation: with S9, exposure time: 3-4 hours	0.28	2.12	124
concentration: 41.9 (µM), S9 metabolic activation: without S9, exposure time: 24 hours	1.56	1.16	101
concentration: 52.4 (µM), S9 metabolic activation: with S9, exposure time: 3-4 hours	0.28	1.72	144
concentration: 52.4 (µM), S9 metabolic activation: without S9, exposure time: 24 hours	1.66	1.18	88.6
concentration: 65.5 (µM), S9 metabolic activation: with S9, exposure time: 3-4 hours	0.28	1.48	110
concentration: 65.5 (µM), S9 metabolic activation: without S9, exposure time: 24 hours	1.4	1.2	83.5
concentration: 81.9 (µM), S9 metabolic activation: with S9, exposure time: 3-4 hours	0.36	2.9	101
concentration: 81.9 (µM), S9 metabolic activation: without S9, exposure time: 24 hours	1.8	1.74	102
concentration: 102 (µM), S9 metabolic activation: with S9, exposure time: 3-4 hours	0.3	1.62	104
concentration: 102 (µM), S9 metabolic activation: without S9, exposure time: 24 hours	2.52	1.66	116
concentration: 128 (µM), S9 metabolic activation: with S9, exposure time: 3-4 hours	0.24	1.5	84.9
concentration: 128 (µM), S9 metabolic activation: without S9, exposure time: 24 hours	1.64	2.84	123
concentration: 160 (µM), S9 metabolic activation: with S9, exposure time: 3-4 hours	0.29	1.72	88.4
concentration: 160 (µM), S9 metabolic activation: without S9, exposure time: 24 hours	1.64	1.64	120
concentration: 200 (µM), S9 metabolic activation: with S9, exposure time: 3-4 hours	0.2	1.6	108
concentration: 200 (µM), S9 metabolic activation: without S9, exposure time: 24 hours	2.52	2.2	83.5
